According to PubChem BioAssay AID504332 (National Center for Advancing Translational Sciences (NCATS), 2011):
Screen size: about 350,000 compounds; about 31,000 (8.9%) were called active. Inconclusive results, whose numbers are uncertain, are shown with a selection of clear calls. Calls follow the shape of the dose curve; as a rule, active = well fitted inhibition curve with a large enough effect; inconclusive = small, poorly fitted or top-dose-only effect; inactive = no such curve, though single readings can be large or run the other way. Where the call is inconclusive, the potency comes from a doubtful curve fit.

The molecules below were run against Histone-lysine N-methyltransferase EHMT2 (Homo sapiens) (UniProt Q96KQ7) (assay: qHTS Assay for Inhibitors of Histone Lysine Methyltransferase G9a). Conditions: G9a H3K9 monomethylation, AlphaScreen, 2 h; activity, negative = inhibition: at 59 µM (top of the series) unless noted.
Method in brief: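 Chemiluminescent proximity detection of H3K9 monomethylation, read after 10 min bead incubation in the dark. Reaction: 20 nM G9a, 500 nM biotin-H3K9 peptide, 20 uM SAM cofactor, 2 h, room temperature, following 15 min enzyme-compound preincubation.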
% is scaled to controls: 0 for no effect and ±100 for the full control effect; potency is read from the fitted curve at half-maximal effect; tags tell the direction and shape of the fitted curve.
Also: nearly all actives have a fitted effect of over 75% in size.

Chain of UniProt Q96KQ7 (Q96KQ7 whole entry, looked up): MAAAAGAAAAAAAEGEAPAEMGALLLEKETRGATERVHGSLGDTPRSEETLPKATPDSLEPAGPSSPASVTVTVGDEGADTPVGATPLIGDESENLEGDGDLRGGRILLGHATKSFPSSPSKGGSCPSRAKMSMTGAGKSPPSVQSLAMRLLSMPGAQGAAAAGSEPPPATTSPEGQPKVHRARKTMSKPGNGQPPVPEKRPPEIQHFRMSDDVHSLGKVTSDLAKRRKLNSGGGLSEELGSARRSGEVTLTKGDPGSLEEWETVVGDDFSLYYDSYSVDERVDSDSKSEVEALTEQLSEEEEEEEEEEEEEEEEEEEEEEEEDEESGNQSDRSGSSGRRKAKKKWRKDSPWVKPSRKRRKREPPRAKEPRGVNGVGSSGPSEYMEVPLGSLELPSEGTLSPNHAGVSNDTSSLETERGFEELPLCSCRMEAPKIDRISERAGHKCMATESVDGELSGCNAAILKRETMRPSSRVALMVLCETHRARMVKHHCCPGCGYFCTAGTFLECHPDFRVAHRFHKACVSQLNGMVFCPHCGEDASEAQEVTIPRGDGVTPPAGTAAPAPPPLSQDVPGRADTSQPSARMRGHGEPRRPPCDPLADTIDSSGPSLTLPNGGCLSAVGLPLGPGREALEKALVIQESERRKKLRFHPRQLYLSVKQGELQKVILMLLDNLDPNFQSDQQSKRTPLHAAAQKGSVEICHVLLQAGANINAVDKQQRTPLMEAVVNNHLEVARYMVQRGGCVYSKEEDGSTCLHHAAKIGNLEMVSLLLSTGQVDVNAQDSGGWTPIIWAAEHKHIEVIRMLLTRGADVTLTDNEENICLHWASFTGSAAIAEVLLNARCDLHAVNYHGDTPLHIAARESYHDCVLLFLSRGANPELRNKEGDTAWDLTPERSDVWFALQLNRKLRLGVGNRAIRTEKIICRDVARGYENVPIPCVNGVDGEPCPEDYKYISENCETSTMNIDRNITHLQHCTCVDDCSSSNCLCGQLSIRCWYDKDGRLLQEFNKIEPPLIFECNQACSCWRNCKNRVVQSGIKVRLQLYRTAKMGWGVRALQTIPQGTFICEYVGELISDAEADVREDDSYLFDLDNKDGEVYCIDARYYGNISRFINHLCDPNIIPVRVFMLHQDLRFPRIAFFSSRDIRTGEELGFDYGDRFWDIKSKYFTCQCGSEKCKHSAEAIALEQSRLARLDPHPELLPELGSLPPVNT

| Compound | Potency | activity, negative = inhibition |
| --- | --- | --- |
| CC(C)(C)c1ccc(OCC(=O)Nc2ccc(C(=O)Nc3ccccc3C(=O)O)cc2)cc1 | inconclusive: 28.2 µM [inhibitor, partial curve, poor fit] |  |
| O=C(CSc1nnnn1C1CC2CCC1C2)Nc1ccnc2ccccc12 (stereo not given) |  | inconclusive: -62.9% [inhibitor] |
| COc1cc(-c2nc(C(F)(F)F)c(OC)o2)cc(OC)c1OC | inconclusive: 22.4 µM [inhibitor, single point] |  |
| CCCOc1ccc(CNC(=O)C(C)n2nc(C)n3c(cc4occc43)c2=O)cc1 (stereo not given) | inactive |  |
| CCC(=O)NCc1ccc2[nH]c(C)cc2c1 | active: 35.5 µM |  |
| CNc1snc(C)c1C(=O)OC(C)C(=O)NCc1ccccc1 (stereo not given) | inconclusive: 79.4 µM [inhibitor, partial curve, poor fit] |  |
| Cc1cccc(C)c1NC(=O)CNC(=O)C12CC3CC(CC(O)(C3)C1)C2 | inconclusive: 89.1 µM [inhibitor, partial curve, poor fit] |  |
| CC1(c2ccccc2)NC(=O)N(CC(=O)N(CC(=O)Nc2ccccc2C(F)(F)F)Cc2ccco2)C1=O (stereo not given) | inconclusive: 89.1 µM [inhibitor, partial curve, poor fit] |  |
| Cc1noc(C)c1CSCC(=O)Nc1ccc(S(=O)(=O)C(F)F)cc1 | inconclusive: 79.4 µM [inhibitor, partial curve, poor fit] |  |
| COc1ccc(C2NC(=S)N(c3ccccc3)C(C)=C2C(=O)Nc2ccccc2)cc1 (stereo not given) | inconclusive: 89.1 µM [inhibitor, single point] |  |
| Cc1ccc(S(=O)(=O)Nc2nc3ccc(S(=O)(=O)N4CCCC4)cc3s2)cc1 | inconclusive: 3.55 µM [inhibitor, partial curve, poor fit] |  |
| CSc1ccc(S(=O)(=O)NCC(=O)OCC(=O)N2CC(C)CC(C)C2)cc1[N+](=O)[O-] (stereo not given) | active: 50.1 µM |  |
| Cc1cc(N/N=C/c2ccc(O)cc2O)nc(-n2nc(C)cc2C)n1 | inactive |  |
| Cc1ccc(C(=O)N2c3ncnn3C3(CCCCC3)[C@@H]3CCCC[C@@H]32)cc1 | inactive |  |
| CCOc1cc(/C=N/NC(=O)C(N)=O)cc(Br)c1O |  | inconclusive: -84.5% [inhibitor] |
| CC1CCCC(NC(=O)Cn2cc(C(F)(F)F)cc(Cl)c2=O)C1C (stereo not given) | inconclusive: 7.08 µM [inhibitor, single point] |  |
| O=C(Cn1nnc2ccccc21)NNC(=S)NC1CCCCC1 | inactive |  |
| N#C/C(=C/c1ccc(N2CCCCC2)o1)C(=O)Nc1ccc(Cl)cc1 | inconclusive: 31.6 µM [inhibitor, partial curve, poor fit] |  |
| CCNc1nc(C)nc2c1oc1ccccc12 | inconclusive: 39.8 µM [inhibitor, single point] |  |
| FC(F)(F)c1nnc2sc(-c3ccco3)nn12 | inactive |  |
| CS/C(=N\S(=O)(=O)c1cccs1)NC(=O)CSc1nc2ccccc2s1 | inconclusive: 22.4 µM [inhibitor, single point] |  |
| CC(=O)c1ccccc1NC(=O)COC(=O)c1cc(C)oc1C |  | inactive: 10.3% [at 12.7 µM] |
| COc1cc(OC)c(CN2CCc3c([nH]c4ccccc34)C2)cc1Br | inconclusive: 31.6 µM [inhibitor, partial curve, poor fit] |  |
| CC(C)OC(=O)CSc1nnc(-c2ccc(C(C)(C)C)cc2)n1N | active: 12.6 µM |  |

| Compound | Potency | activity, negative = inhibition |
| --- | --- | --- |
| C=CCNC(=O)CN1C(=O)NC(C)(c2ccc(OC)cc2)C1=O (stereo not given) | inactive |  |
| Cc1cc(=O)[nH]c(SCc2nc3ccccc3n2Cc2ccccc2)n1 | inconclusive: 8.91 µM [inhibitor, single point] |  |
| CCOC(=O)c1ccc(Nc2nc(N)c3cc(OC)c(OC)cc3n2)cc1 | inactive |  |
| O=C(CSc1ccc(F)cc1)Nc1nnc(-c2ccco2)o1 |  | inactive: 0.628% [at 0.501 µM] |
| N#C/C(C(N)=O)=C1/SC=C(c2ccccc2)N1c1ccccc1 | inconclusive: 50.1 µM [inhibitor, partial curve] |  |
| COc1ccc(/C=C2\SC(=S)N(CCC(=O)NC3CCCC3)C2=O)cc1OC | inactive |  |
| O=C(O)/C=C\c1cc2c(cc1[N+](=O)[O-])OCO2 | inconclusive: 50.1 µM [inhibitor, partial curve] |  |
| COc1ccc(Nc2cc(C(=O)NCCCN(C)c3ccccc3)c3ccccc3n2)c(OC)c1 | active: 7.94 µM |  |
| COc1ccc(CC(=O)Nc2ccc(-c3nc4ccccc4s3)cc2Cl)cc1OC | inactive |  |
| Cc1ccccc1NC(=O)Cc1nnc(SCC(=O)Nc2ccccc2)n1C | inactive |  |
| O=S(=O)(Nc1ccc(-c2ccc3nncn3n2)cc1)c1ccccc1Cl | inconclusive: 89.1 µM [inhibitor, single point] |  |
| COc1ccc(NC(=O)C2CCCN(C(=O)Nc3ccc(F)cc3)C2)cc1OC (stereo not given) | inactive |  |
| CC(=O)Nc1ccc(NC(=O)C(C)OC(=O)C(C)SCC(=O)Nc2ccc(C)cc2)cc1 (stereo not given) | inactive |  |
| COc1cccc(CN2CCN(Cc3cc(OC)c(OC)cc3OC)CC2)c1 | active: 44.7 µM |  |
| CCOc1ccc(N2CC(C(=O)Nc3ccc(S(=O)(=O)N4CCCC4)cc3)CC2=O)cc1 (stereo not given) | active: 35.5 µM |  |
| COc1ccc(Cn2nnnc2C(c2cccnc2)N2CCN(c3ccc(O)cc3)CC2)cc1 (stereo not given) |  | inconclusive: -125% [inhibitor] |
| COc1ccc(CC2C(=O)OC(C)(C)OC2=O)cc1 | active: 39.8 µM |  |
| O=C(O)c1cc(S(=O)(=O)N2CCCCC2)ccc1N1CCCCC1 | inconclusive: 14.1 µM [inhibitor, single point] |  |
| CCN(CC)CCN1CCn2c3c(c4cc(C)ccc42)CCCC31 (stereo not given) | inconclusive: 39.8 µM [inhibitor, single point] |  |
| CCSc1sccc1C1C(C#N)=C(N)N(c2cccnc2)C2=C1C(=O)CCC2 (stereo not given) | inconclusive: 28.2 µM [inhibitor, single point] |  |
| CCC(=O)NNC(=O)c1c(O)c2ccccc2[nH]c1=O | inconclusive: 89.1 µM [inhibitor, partial curve, poor fit] |  |
| CCOc1cc(C2NC(=O)c3ccccc3O2)ccc1OC(C)C (stereo not given) | inconclusive: 100 µM [inhibitor, single point] |  |
| COc1ccc(S(=O)(=O)NCC(c2ccco2)N2CCN(c3ccccc3F)CC2)cc1OC (stereo not given) | inactive |  |
| Cc1cc(NC(=O)COn2nnc3ccc(S(C)(=O)=O)cc32)ccc1Br | inconclusive: 89.1 µM [inhibitor, partial curve, poor fit] |  |

| Compound | Potency | activity, negative = inhibition |
| --- | --- | --- |
| COC(=O)c1sccc1NC(=O)CC1C(=O)NCCN1C(=O)Nc1ccc(OCc2ccccc2)cc1 (stereo not given) | inconclusive: 31.6 µM [inhibitor, single point] |  |
| COc1ccc(-c2ccc3c(N)c(C(=O)Nc4ccc(C)cc4C)sc3n2)cc1OC | inconclusive: 7.94 µM [inhibitor, partial curve, poor fit] |  |
| O=C1c2ccccc2C(=O)C1c1nccc2ccccc12 |  | inactive: -3.19% [at 12.7 µM] |
| COc1cccc(-c2nnc(-c3ccccc3NC(=O)c3ccc(C(C)(C)C)cc3)o2)c1 | inactive |  |
| O=C(O)/C=C\C(=O)Nc1cc(O)ccc1[N+](=O)[O-] | inconclusive: 56.2 µM [inhibitor, partial curve, poor fit] |  |
| COc1ccccc1N1CCN(C(=O)c2nc(-c3ccc(C)cc3)n3c2CCCCC3)CC1 | inconclusive: 20 µM [inhibitor, partial curve, poor fit] |  |
| O=C(Nc1ccc(Cl)cc1)N1N=CCC1c1ccccc1 (stereo not given) | inactive |  |
| CCc1cccc(NC(=O)C2CCCN2S(=O)(=O)c2ccc3c(c2)n(C)c(=O)c(=O)n3C)c1 (stereo not given) | inactive |  |
| O=C(CC(Nc1ccc(F)cc1)C(=O)O)c1ccccc1 (stereo not given) | active: 10 µM |  |
| CCOc1ccc(-n2c(C)cc(/C=N/NC(=O)C(N)=O)c2C)cc1 | inconclusive: 89.1 µM [inhibitor, single point] |  |
| O=C1NC2(CCCC2)C(=O)N1CC(=O)N(Cc1ccccc1)c1ccccc1 | inconclusive: 79.4 µM [inhibitor, single point] |  |
| CC(C)(C)NS(=O)(=O)c1cnc(Cl)c(Cl)c1 | inactive |  |
| COCCN1CCn2c(nc3cc(NC(=O)c4ccc(OC)cc4)ccc32)C1 | inconclusive: 2.24 µM [inhibitor, partial curve, poor fit] |  |
| O=C(CSc1cccc[n+]1[O-])c1cc2ccccc2o1 | inconclusive: 3.55 µM [inhibitor, full curve, poor fit] |  |
| CC(C)Cc1nc2oc3c(NCCCN4CCOCC4)ncnc3c2c2c1CCC2 | inconclusive: 5.62 µM [inhibitor, partial curve, poor fit] |  |
| Cc1cc(C)c(/C=C/c2onc(C)c2S(=O)(=O)N2CCC(C(=O)NCC(C)c3ccccc3)CC2)c(C)c1 (stereo not given) | inactive |  |
| CN(C)CCCNCCCNC(=O)/C(=N\O)c1ccccn1 | active: 7.94 µM |  |
| O=S(=O)(c1ccc(Cl)c(NC(=S)N/N=C/c2ccc(O)cc2)c1)N1CCOCC1 | active: 1.41 µM |  |
| Cc1cc(NC(=O)CCCN2C(=O)/C(=C/c3cccs3)SC2=S)no1 | inconclusive: 22.4 µM [inhibitor, single point] |  |
| COCCn1c(C)cc(C(=O)COC(=O)c2cccc(O)c2)c1C | inconclusive: 89.1 µM [inhibitor, single point] |  |
| Cn1c(C(=O)N2CCCC(C(=O)NCCCSC3CCCCC3)C2)cc2sccc21 (stereo not given) | inconclusive: 56.2 µM [inhibitor, partial curve, poor fit] |  |
| CSc1nc2nc3c(cc2c(=O)n1-c1ccc(C)cc1)COC(C)(C)C3 | inconclusive: 70.8 µM [inhibitor, single point] |  |
